The whole screen tested about 390,000 compounds, of which about 910 (0.23%) were called active. Inconclusive results (about 5%) are left out. Calls come from the whole dose curve; as a rule, active = well fitted inhibition curve with a large enough effect; inconclusive = small, poorly fitted or top-dose-only effect; inactive = no such curve, though single readings can be large or run the other way. Only a part is listed here, and it is no random draw.
These compounds were tested against Ubiquitin carboxyl-terminal hydrolase 1 (Homo sapiens) (UniProt O94782) (assay: Inhibitors of USP1/UAF1: Primary Screen). Settings: recombinant USP1/UAF1, Ub-Rhodamine cleavage fluorescence; activity change, negative = inhibition: at 57.1 µM (top of the series).
Sequence of UniProt O94782 (O94782 whole entry, looked up): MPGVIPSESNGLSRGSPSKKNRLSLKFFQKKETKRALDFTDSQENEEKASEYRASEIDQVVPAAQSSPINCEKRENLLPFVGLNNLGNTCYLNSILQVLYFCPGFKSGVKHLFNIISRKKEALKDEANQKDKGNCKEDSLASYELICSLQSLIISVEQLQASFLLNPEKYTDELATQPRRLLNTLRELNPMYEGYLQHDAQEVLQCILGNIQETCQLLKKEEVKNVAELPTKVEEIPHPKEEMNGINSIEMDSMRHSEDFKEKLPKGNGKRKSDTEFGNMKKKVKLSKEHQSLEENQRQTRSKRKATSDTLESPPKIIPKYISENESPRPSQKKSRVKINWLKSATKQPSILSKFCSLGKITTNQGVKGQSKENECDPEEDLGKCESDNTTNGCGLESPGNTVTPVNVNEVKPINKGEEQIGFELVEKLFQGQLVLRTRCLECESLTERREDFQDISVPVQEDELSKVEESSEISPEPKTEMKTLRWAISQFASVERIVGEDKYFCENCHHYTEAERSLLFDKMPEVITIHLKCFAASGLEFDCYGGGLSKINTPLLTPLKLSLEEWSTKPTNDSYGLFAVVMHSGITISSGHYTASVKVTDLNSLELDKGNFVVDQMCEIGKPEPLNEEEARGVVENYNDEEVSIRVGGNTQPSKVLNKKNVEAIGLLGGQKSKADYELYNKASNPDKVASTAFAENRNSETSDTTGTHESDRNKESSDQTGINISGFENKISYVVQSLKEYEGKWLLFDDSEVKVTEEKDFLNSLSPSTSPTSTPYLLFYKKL
From the text: Deubiquitinating enzymes (DUBs) are a class of enzymes that can cleave isopeptide bond formed between the C-terminal carboxylate of ubiquitin and a lysine side-chain amino group on the target protein. Among them, ubiquitin specific proteases (USPs) constitute the largest DUB family. Human USPs are emerging as promising targets for pharmacological intervention because of their connection to a number of human diseases, including prostate, colon and breast cancer (1, 2), pediatric acute lymphoblastic leukemia (3), and familial cylindromatosis (4). The advantage of inhibiting USPs lies in the potential specificity of therapeutic intervention that can lead to better efficacy and reduce nonspecific side effects. In a collaboration between the University of Delaware and the NIH Chemical Genomics Center, a high-throughput screen assay was developed to screen for USP1/UAF1 inhibitors. This miniaturized assay has a fluorescent read-out and is used to screen the NIH Molecular Libraries Small Molecule Repository (MLSMR) in order to identify a small molecule that inhibits USP1. NIH Chemical Genomics Center [NCGC] NIH Molecular Libraries Probe Centers Network [MLPCN] MLPCN Grant: DA030552 Assay Submitter (PI): Zhihao Zhuang, University of Delaware 1. Priolo, C., et al. (2006) The isopeptidase USP2a protects human prostate cancer from apoptosis. Cancer Res 66, 8625-8632 2. Popov, N., et al. (2007) The ubiquitin-specific protease USP28 is required for MYC stability. Nat Cell Biol 9, 765-774 3. De Pitta, C., et al. (2005) A leukemia-enriched cDNA microarray platform identifies new transcripts with relevance to the biology of pediatric acute lymphoblastic leukemia. Haematologica 90, 890-898 4. Kovalenko, A., et al. (2003) The tumour suppressor CYLD negatively regulates NF-kappaB signalling by deubiquitination. Nature 424, 801-805
3 microliters of reagents (buffer in columns 3 and 4 as negative control and 1nM USP1/UAF1 complex in columns 1, 2, and 5-48) are dispensed into Greiner black solid bottom 1536-well assay plates. Compounds are then transferred via Kalypsys pin tool equipped with 1536-pin array (10nl slotted pins, V&P Scientific, San Diego, CA). Following an incubation step of 15 min at room temperature, 1ul of Ub-Rho substrate (150nM final concentration) is added to initiate the reaction. The plates are immediately centrifuged at 1000 rpm for 15 seconds, and subsequently transferred to a ViewLux high-throughput CCD imager (PerkinElmer) wherein kinetic measurements of fluorescence are acquired using 480 nm excitation/540 nm emission filter set (6 reads every 60 seconds, see Table 1). All reagents are diluted in an assay buffer consisting of 50mM HEPES (pH 7.8), 0.5mM EDTA, 0.1 mg/ml BSA, 1mM TCEP, and 0.01% Tween-20.
% is set by controls: 0 for no effect and ±100 for the full control effect; potency is the fitted concentration of half-maximal effect.
Note: nearly all actives have a fitted effect of over 60% in size.

Compound	activity change, negative = inhibition	Potency
C=CC[C@@H](Cc1ccc(F)cc1)C(=O)OC[C@H]1CCCN1C(=O)[C@H](CC=C)CC(=O)N(CCO)Cc1ccccc1	inactive: -15.9%	–
CCOC(=O)C1=C(C)N[C@@]2(O)c3ccccc3C(=O)[C@@]12O	inactive: -21.3%	–
Cc1oc2ccc(NS(=O)(=O)c3ccc(F)cc3)cc2c1C(=O)O	inactive: -11.1%	–
COC(=O)c1cc2occc2n1Cc1nc(-c2ccccc2C)oc1C	inactive: 3.44%	–
CSC1=NSC2=NC(=O)/C(=C/c3coc4ccc(O)cc4c3=O)C(=N)N12	–	active: 22.4 µM
C=CCC[C@@H](Cc1ccc(F)cc1)C(=O)OC[C@@H](Cc1c[nH]c2ccccc12)NC(=O)[C@@H](CC=C)CC(=O)N(CCO)Cc1ccccc1	inactive: -20.5%	–
C[C@@H]1COC(=O)[C@H](CC(=O)OC(C)(C)C)C/C=C\C[C@@H](CC(=O)N(CCO)Cc2ccccc2)C(=O)N1	inactive: 2.23%	–
CCOC(=O)/C(=C/C1=CC(=C/N(C)C)/C(=O)O1)C(C)=O	–	active: 31.6 µM
CN(C)c1ccc(/C=C2\c3ccccc3C(=O)N2c2ccccc2)cn1	inactive: 36%	–
Cc1nn(CCC(=O)NCc2ccc(N(C)C)cc2)c(=O)c2nn(-c3ccccc3)c(C)c12	inactive: -19.4%	–
O=C(C1=C[C@@H](c2ccc(Br)cc2)C[C@@H](OCCCCO)O1)N1CCN(Cc2ccccc2)CC1	inactive: -6%	–
Cc1[nH][nH]c(=O)c1C(c1c(C)[nH][nH]c1=O)c1cn(Cc2ccccc2Cl)c2ccccc12	–	active: 28.2 µM
O[C@@H]1CN(CC2CCCCC2)[C@@H](c2ccc(Cl)cc2)C[C@H]1n1cc(C2CC2)nn1	inactive: -14.8%	–
C[C@@H]1CN([C@H](C)CO)C(=O)CCCn2nncc2CO[C@@H]1CN(C)S(=O)(=O)c1ccccc1F	inactive: -14.4%	–
CCOC(=O)c1c(NC(=O)/C=C/c2ccc(OC)cc2)sc2c1CCC(C)C2 (stereo unspecified)	inactive: 31.4%	–
C[C@@H]1CN([C@H](C)CO)C(=O)CCCn2nncc2CO[C@H]1CN(C)Cc1cccc2c1OCCCO2	inactive: -0.113%	–
CCc1nn(CC(=O)NCCCc2ccccc2)c(=O)c2cc3c(OC)cccc3n12	inactive: -22.7%	–
CC1=NN(c2ccccc2)C(=O)/C1=C/C=C/c1ccccc1	inactive: -21.3%	–
CCOC(=O)C(=O)Nc1nnc2n1CCS2	inactive: 29.4%	–
CCOC(=O)/C(=C/C=C1\Sc2cc(OCC)c(OCC)cc2N1CC)C(C)=O	–	active: 22.4 µM
O=C(Cn1ccc2ccccc2c1=O)NCCC(=O)Nc1ccc(F)cc1F	inactive: 2.07%	–

Compound	activity change, negative = inhibition	Potency
COC(C[C@H]1O[C@@H]1[C@@H](O)COCc1ccccc1)OC	inactive: -17.1%	–
Cc1cccc(NC(=O)Nc2ccc(Br)cc2)n1	inactive: -13.3%	–
Cc1cccc([C@H](NC(=O)OC(C)(C)C)C(=O)OC(C)(C)C)c1	inactive: -1.65%	–
C=CC[C@@H](CC(=O)N[C@@H](CO)Cc1ccccc1)C(=O)N[C@H](COC(=O)[C@@H](CC=C)Cc1ccc(F)cc1)Cc1c[nH]c2ccccc12	inactive: -21%	–
C#CCNC(=O)C1=C[C@H](c2coc3ccccc3c2=O)[C@@H](CCCO)[C@H](OCC)O1	inactive: -8.68%	–
Cc1cc(C)n(-c2cccc(C(=O)O)c2)n1	inactive: -1.12%	–
Cn1cc(C(=O)Nc2ccc(C#N)cc2)c2ccccc2c1=O	inactive: -17.6%	–
C[C@@H]1COC(=O)[C@@H](CC(=O)OC(C)(C)C)C/C=C\C[C@H](CC(=O)NCCO)C(=O)N1	inactive: -24.9%	–
Cc1cc(C)c(NC(=O)Cn2nnc(C(=O)Nc3ccc(F)cc3F)c2N)c(C)c1	inactive: -9.66%	–
CCOC(=O)/C=C1\SCC(=O)N1CC(=O)Nc1ccccc1OC(F)F	inactive: -21.9%	–
Cn1cc(/C=C2\SC(=S)N(NC(=O)c3ccccc3)C2=O)c2ccccc21	inactive: 53.3%	–
CCO[C@@H]1c2c(ccc3ccc(=O)oc23)OC(C)(C)[C@@H]1O	inactive: -25.1%	–
O=C(CC1N=C2c3ccccc3N=C(SCc3ccccc3Cl)N2C1=O)NCc1cccs1 (stereo unspecified)	inactive: 45.2%	–
CCCCN1C(=O)C2Cc3c([nH]c4ccccc34)CN2C1=S (stereo unspecified)	–	active: 25.1 µM
C=CCC[C@@H](Cc1ccc(F)cc1)C(=O)O[C@H](CNC(=O)[C@H](CC=C)CC(=O)N(CCO)Cc1ccccc1)c1ccccc1	inactive: -21.9%	–
COc1ccc(C)cc1Nc1n[n+](-c2ccccc2)c(-c2cc([N+](=O)[O-])cc(OC)c2O)s1	inactive: 83.2%	–
CCN1C(=O)[C@H]2[C@@H](c3ccc(-c4ccc(OC)cc4)c(OC)c3)N3CCCC[C@@]3(C(=O)OC)[C@H]2C1=O	inactive: -10.1%	–
COc1cc(CNc2ccc3[nH]c(=O)[nH]c3c2)cc(Br)c1OCc1ccc(F)cc1	inactive: -9.46%	–
C[C@@H]1CN([C@@H](C)CO)C(=O)CCCn2nncc2CO[C@@H]1CN(C)C(=O)NC1CCCCC1	inactive: -14.1%	–
CC(NC(=O)C1CCN(S(=O)(=O)c2ccc3nc4c(c(C(=O)O)c3c2)CCCC4)CC1)c1ccccc1 (stereo unspecified)	inactive: -24.1%	–

Source: PubChem BioAssay AID743255 (National Center for Advancing Translational Sciences (NCATS), 2014)
